Laboratory results published in PubChem BioAssay AID1865 (National Center for Advancing Translational Sciences (NCATS), 2009).
Among all 280,000 compounds or so, about 540 (0.19%) were called active. Inconclusive means that the source gave no clear call. Such entries were picked first, then a sample of the others. The call rests on the fitted dose curve; in most records, active means well fitted activation curve with a large enough effect; inconclusive means small, poorly fitted or top-dose-only effect; inactive means flat fitted curve, though single readings scatter. A potency beside an inconclusive call is a rough fit, not a confirmed value.

Assay: Quantitative High-Throughput Screen for Regulators of Epigenetic Control; further: nearly all actives have a fitted effect of over 60% in size
Conditions: murine LDR cells, GFP reporter derepression, 30 h; series mostly up to 53.9 µM
Source text: NIH Molecular Libraries Screening Centers Network [MLPCN] NIH Chemical Genomics Center [NCGC] MLSCN Grant: 1 X01 MH079860-01 Assay Provider: Elisabeth D. Martinez, University of Texas SW Medical Center NCGC Assay Overview: The Locus Derepression (LDR) assay detects the derepression or induction of a GFP reporter that is stably integrated in a genomic region of murine cells that is presumably silenced. Transcription of the GFP reporter is controlled by a CMV promoter, which normally is constitutively active. However, this cell line, termed LDR, was selected for lack of constitutive production of GFP. GFP production can be induced by incubating the cells with histone deacetylase or DNA methyltransferase inhibitors (Martinez et al., 2006). Compounds that derepress or induce this reporter locus are identified by enumerating GFP positive cells using a laser-scanning microplate cytometer (Auld et al., 2006). This assay was screened against the MLSMR earlier (AID 597; (Johnson et al., 2008) and has been rescreened here against the expanded collection.
NCGC Assay Protocol Summary: Three hundred LDR cells in 5 uL per well were dispensed into black, clear-bottom 1536-well plates. Twenty-three nL compound was transferred to the assay plate and cells were incubated 30 hours at 37 C. Medium was removed, cells were washed two times with PBS, and GFP-positive cells were enumerated as fluorescent objects between the sizes of 20 to 120 um width and depth using an Acumen Explorer. References Auld, DS, Johnson, RL, Zhang, YQ, Veith, H, Jadhav, A, Yasgar, A, Simeonov, A, Zheng, W, Martinez, ED, Westwick, JK, Austin, CP, Inglese, J (2006). Fluorescent protein-based cellular assays analyzed by laser-scanning microplate cytometry in 1536-well plate format. Methods Enzymol 414: 566-89. Johnson, RL, Huang, W, Jadhav, A, Austin, CP, Inglese, J, Martinez, ED (2008). A quantitative high-throughput screen identifies potential epigenetic modulators of gene expression. Anal Biochem 375: 237-48. Martinez, ED, Dull, AB, Beutler, JA, Hager, GL (2006). High-content fluorescence-based screening for epigenetic modulators. Methods Enzymol 414: 21-36.
Potency means the concentration at half of the fitted maximal effect; tags describe the fitted curve by direction and shape.

Row | SMILES | Potency
1 | COC(=O)c1ccc(C(=O)OC)c(NC(=O)c2cnn3c(C(F)F)cc(-c4ccc(C)cc4)nc23)c1 | inactive
2 | CC(C)CN(CC(C)C)S(=O)(=O)c1ccc(C(=O)Nc2sc3c(c2C(N)=O)CCN(C(C)C)C3)cc1 | inconclusive: 22.4 µM [activator, single point]
3 | Cc1c(O)ccc(NS(=O)(=O)c2ccccc2)c1C | inactive
4 | Cc1cc(/C=C(/C#N)c2nc3ccccc3[nH]2)c(C)n1-c1cc(C(=O)O)cc(C(=O)O)c1 | inactive
5 | O=C(Nc1cccc(Cl)c1)c1cc(S(=O)(=O)N2CCC3(CC2)OCCO3)ccc1F | inconclusive: 3.55 µM [activator, single point]
6 | C=CCc1ccc(OCCCCCN2CCOCC2)c(OC)c1 | inconclusive: 4.47 µM [activator, full curve]
7 | Cc1ccc(-n2ncc3c(N4CCCCC4)ncnc32)cc1 | inactive
8 | Nc1nc(-c2ccco2)nn1C(=O)c1ccc(F)cc1 | inactive
9 | O=C1CCCc2[nH]c(=O)c(-c3nc(-c4cccc([N+](=O)[O-])c4)cs3)cc21 | inconclusive: 28.2 µM [activator, single point]
10 | CCOC(=O)c1cc2c(=O)n3ccccc3nc2n(Cc2ccco2)c1=NC(=O)c1ccc(F)cc1 | inconclusive: 14.1 µM [activator, single point]
11 | COc1cc([N+](=O)[O-])ccc1-c1ccc(/C=N/NC(=O)OC(C)(C)C)o1 | inconclusive: 12.6 µM [activator, single point]
12 | O=C(Nc1ccc(Cl)c(C(F)(F)F)c1)C(Cc1ccccc1)NS(=O)(=O)c1cccc2nsnc12 (stereo not given) | inactive
13 | COc1ccc(OC)c(CN2CCC(CNC(=O)Nc3cccc(Cl)c3)CC2)c1 | inconclusive: 0.0891 µM [activator, full curve, poor fit]
14 | CCCCC(=O)NC(Nc1nc(C2CC2)cs1)(C(=O)OCC)C(F)(F)F (stereo not given) | inconclusive: 31.6 µM [activator, single point]
15 | CN(CCOC(=O)/C=C/c1ccco1)Cc1ccccc1 | inactive
16 | COc1ccc(-c2cc(C)no2)cc1S(=O)(=O)N1CCOc2ccc(Cl)cc21 | inconclusive: 25.1 µM [activator, single point]
17 | COc1cc2c3nnc(-c4ccc(F)cc4)c-3cn(Cc3ccc(C)cc3)c2cc1OC | active: 6.31 µM
18 | CC1=Nc2cc(C(=O)N3CCCCC3)ccc2Sc2ccc(C)cc21 | inactive
19 | CC1=C(CC/C(C)=N/NC(N)=S)C(C)(C)CCC1 | inconclusive: 17.8 µM [activator, single point]
20 | CC1CCc2c(sc(NC(=O)c3cc(-c4ccc(F)cc4)on3)c2C(N)=O)C1 (stereo not given) | inactive
21 | COCCN1C(=O)/C(=C/c2ccc(N3CCCC3)cc2C)SC1=S | active: 2.82 µM
22 | COc1cc(-n2c(=O)c3ccccc3n(Cc3cccc(F)c3)c2=O)cc(OC)c1OC | inconclusive: 2.82 µM [activator, single point]
23 | CC1=Nc2cc(C(=O)NC(C)C)ccc2Sc2ccc(C)cc21 | inactive
24 | COc1cccc(/C=N/NC(=O)C(=O)NCc2cccnc2)c1O | inactive

Row | SMILES | Potency
25 | Cc1cc(C)cc(-n2ccn(Cc3ccc(F)cc3)c(=O)c2=O)c1 | inactive
26 | COc1cccc(NC(=S)NN=C2CCCCCC2)c1 | inconclusive: 25.1 µM [activator, single point]
27 | COc1ccc(Nc2oc(/C=C/c3ccc(OC)c(OC)c3)nc2C#N)cc1 | inconclusive: 35.5 µM [activator, single point]
28 | Nc1nc(Nc2ccccc2)nc(N2CCOCC2)c1[N+](=O)[O-] | inactive
29 | O=c1c(-c2ccco2)[n+]([O-])c2ccccc2n1OCc1ccccc1[N+](=O)[O-] | inconclusive: 35.5 µM [activator, single point]
30 | O=C(NC12CC3CC(CC(C3)C1)C2)N1CCN(c2nc(-c3ccccc3)cs2)CC1 | inactive
31 | Cc1ccc2nc(NCCc3ccccc3)c3nncn3c2c1 | inconclusive: 25.1 µM [activator, single point]
32 | C=C(CO)C1Cc2c(ccc3c(=O)c4c(oc23)COc2cc(OC)c(OC)cc2-4)O1 (stereo not given) | inactive
33 | COc1ccc(C(=O)OCC(=O)Nc2nc3c(F)c(F)c(F)cc3s2)cc1OC | inconclusive: 5.62 µM [activator, single point]
34 | Cc1cc(C)cc(NC(=O)Cn2cc(C(=O)c3ccccc3)c(=O)c3ccc(C)nc32)c1 | inconclusive: 14.1 µM [activator, single point]
35 | Cc1csc(NC(=O)C2COc3ccccc3O2)n1 (stereo not given) | inactive
36 | S=C(NCc1ccco1)N1CCN(C/C=C/c2ccccc2)CC1 | inactive
37 | Cc1ccc(/C=N\NC(=O)C2COc3cc4ccccc4cc3O2)o1 (stereo not given) | inactive
38 | Cc1csc2nc(CSc3nc4ccccc4o3)cn12 | inconclusive: 35.5 µM [activator, single point]
39 | Cc1ccc(C(=O)N/N=C/C=C/c2ccccc2)cc1 | inactive
40 | CC(C)=CCc1c2c(c3occ(-c4ccc(O)c(O)c4)c(=O)c3c1O)C=CC(C)(C)O2 | inconclusive: 5.62 µM [activator, single point]
41 | Cc1ccccc1Cn1nc(C)c(NC(=O)C2c3ccccc3Oc3ccccc32)c1C | inconclusive: 35.5 µM [activator, single point]
42 | CCN(CC)c1ccc(S(=O)(=O)N2CCOCC2)cc1NC(=O)CN1CCc2ccccc2C1 | inactive
43 | CCOC(=O)N1CCN(C(=O)COc2ccc(Br)cc2Cl)CC1 | inconclusive: 17.8 µM [activator, single point]
44 | O=C(COc1ccccc1)NNc1nc2c(F)cccc2s1 | inconclusive: 5.62 µM [activator, single point]
45 | Cc1ccc(CN(C(=O)COc2ccc(Cl)cc2Cl)C2CCS(=O)(=O)C2)o1 (stereo not given) | inactive
46 | CC1CC(=O)NN=C1c1cccs1 (stereo not given) | inconclusive: 20 µM [activator, partial curve]
47 | COc1cc(CNCCc2ccc(F)cc2)ccc1OCc1ccc(Cl)nc1 | inconclusive: 6.31 µM [activator, partial curve]
48 | COc1ccc(Cn2ccc3nc(C)c(C(=O)NCc4ccc(OC)cc4OC)cc3c2=O)cc1 | inconclusive: 35.5 µM [activator, single point]

Row | SMILES | Potency
49 | COc1ccc(NC(=O)C(C)n2c(C)c3cnn(-c4ccccc4)c(=O)c3c2C)cc1Cl (stereo not given) | inconclusive: 15.8 µM [activator, single point]
50 | O=C(Nc1nnc(S(=O)(=O)N2CCCC2)s1)c1ccccc1F | inconclusive: 20 µM [activator, single point]
51 | COc1ccccc1NS(=O)(=O)c1cc([N+](=O)[O-])ccc1N/N=C/c1c[nH]c2ccccc12 | inconclusive: 3.16 µM [activator, full curve]
52 | Cc1ccc(CNC(=O)c2sc3nc(-c4ccc(F)cc4)ccc3c2N)cc1 | inconclusive: 22.4 µM [activator, single point]
53 | CCCCN1C(=O)C2Cc3c([nH]c4ccccc34)CN2C1=S (stereo not given) | inconclusive: 25.1 µM [activator, single point]
54 | CCOc1ccc(NC(=O)Cn2c(=O)n(Cc3ccc(C(=O)NCc4ccc(C)cc4)cc3)c(=O)c3ccccc32)cc1 | inconclusive: 14.1 µM [activator, partial curve]
55 | CC(C)CNc1nc2c(c(=O)n(C)c(=O)n2C)n1Cc1cccc(Br)c1 | inconclusive: 7.08 µM [activator, full curve, poor fit]
56 | CCOC(=O)c1c(CC(C)C)csc1/N=C/C1C(=O)CCCC1=O | inconclusive: 14.1 µM [activator, partial curve, poor fit]
57 | Cc1ccccc1NC(=O)c1c(NC(=O)C(F)(F)F)sc2c1CCCCC2 | inactive
58 | NC(=O)c1sc2nc(-c3ccco3)ccc2c1N | inactive
59 | COc1ccc2nc(SCC(=O)N3CC(=O)Nc4ccccc43)c(C#N)cc2c1 | inconclusive: 22.4 µM [activator, single point]
60 | O=C(O)CCSc1ncnc2sc(-c3ccccc3)cc12 | inactive
61 | CC(C)C(=O)NC(c1cccs1)c1cc([N+](=O)[O-])c2cccnc2c1O (stereo not given) | inconclusive: 31.6 µM [activator, single point]
62 | CC(CNC(=O)c1ccc(Nc2nc3ccccc3n3nnnc23)cc1)c1ccccc1 (stereo not given) | inconclusive: 12.6 µM [activator, partial curve]
63 | CCC(C)(C)n1nnnc1C(c1ccc2ncccc2c1)N1CCN(c2ccc(O)cc2)CC1 (stereo not given) | inactive
64 | CCCOC(=O)c1ccc(NC(=O)c2ccc(Br)o2)cc1 | inactive
65 | COc1ccc(-c2nc3ccccc3o2)cc1NC(=O)c1ccc(OCC(C)C)cc1 | inconclusive: 35.5 µM [activator, single point]
66 | O=C(Nc1ccc2nc(SCC(=O)N3CCCC3)sc2c1)c1cccc(F)c1 | inconclusive: 0.126 µM [activator, full curve, poor fit]
67 | COc1ccc(NC(=O)N2CCN(c3cccc(C(F)(F)F)c3)CC2)cc1OC | inactive
68 | CCCN1C(=O)/C(=C/c2c(N3CCNC(=O)C3CC(=O)OCC)nc3c(C)cccn3c2=O)SC1=S (stereo not given) | inconclusive: 3.55 µM [activator, full curve]
69 | S=C(c1ccc(-c2ccc(Cl)cc2Cl)o1)N1CCCC1 | inconclusive: 35.5 µM [activator, single point]
70 | COC(=O)c1ccc(C23CC4(C2)[C@H](CN(Cc2ccc(-c5ccccc5)cc2)[C@@H]4c2ccccc2)C3c2ccc(Cl)nc2)cc1 (stereo not given in full) | inconclusive: 12.6 µM [activator, single point]
